{
  "source": "PubChem BioAssay (NCI)",
  "system": "NCI-H322M lung",
  "assay": "NCI tumour cell line growth inhibition, 48 h",
  "note": "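How tested: cells in 96-well plates exposed to compound for 48 hours at five concentrations. GI50 marks 50% less growth. TGI marks complete inhibition of growth.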",
  "data": [
    {"molecule": "CCO/C=N/C1=C(C#N)C(c2ccc(Cl)cc2)c2sc3c(CC)cccc3c2O1", "note": "(centres undefined)", "values": [
      {"measurement": "GI50", "result": 5.35, "unit": "µM"},
      {"measurement": "TGI", "result": 19.1, "unit": "µM"}
    ]},
    {"molecule": "CCNC(=O)Oc1ccc(/C(=C(/C)c2ccc(OC)cc2)c2ccc(OCCN3CCCCCC3)cc2)cc1", "values": [
      {"measurement": "GI50", "result": 6.61, "unit": "µM"},
      {"measurement": "TGI", "result": 13, "unit": "µM"}
    ]}
  ]
}
